# Data reported in the supplement of paper PMC11417369.
# ± gives the standard deviation of the averaged measurements. The list shows a part of the results.
# Tested on: PfAP2-EXP AP2 domain (GST-tagged)
# Test: gcPBM binding intensity (ln(normalized median fluorescence intensity)); higher = stronger DNA binding
# How it was run: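 GST-tagged P. falciparum DNA-binding domains produced in E. coli were incubated for 1 h on an Agilent 4 × 180k array of primer-extended double-stranded 36-bp intergenic genomic probes with negative controls. Binding intensity is the highest Masliner-normalised natural-log median intensity across replicate spots of either probe orientation, with bound protein detected by Alexa488 anti-GST antibody at 488 nm.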
row,Sequence,gcPBM binding intensity (ln)
1,TGAACAATATATAATAGTACATATTTATTTTTTTCT [XGTACX_site4256],8.13 ± 0.2
2,ATATGTTTTTTTTTTTTTTTTTAATTTGTCATAAAT [CACACA_negctrl_site1208],8.35 ± 0.49
3,TCTTTCAATATTAATGCATGTTAATAATAAATTTTA [TGCATGCA_site448],8.35 ± 0.23
4,TAAAGATGAAATATCACACATATATAAATATATAAA [CACACA_site4580],8.25 ± 0.27
5,TCTTTCTTATTTTAATGATATTTATTCATTCCAGTT [CACACA_negctrl_site1679],8.66 ± 0.44
6,ATATAAATAAATATATGTACACACACAAATATATAC [XGTACX_site3950],8.68 ± 0.27
7,AATACTAAAACCCATACACACACATATATATAGTAC [CACACA_site9041],8.81 ± 0.28
8,ATAAAAAAAAATATTTGTACACATATTTATATATTA [XGTACX_site8147],8.24 ± 0.29
9,AAAAAACACGCGCACACACACACACGCGCCCACATA [CACACA_site7106],8.57 ± 0.21
10,AGAATTATTCTAAAAACACACAATACAAAAGTGCAT [CACACA_site3004],8.76 ± 0.27
11,ACTTTTACACTTTGATTGCACTACTAAACCAGTTCA,9.15 ± 0.32
12,TTCTAATAAATGTGTTGTACACCTTTAGCAACTATT [XGTACX_site3235],8.47 ± 0.24
13,TATATAAATATATACACACATACATACATACATATA [CACACA_site3835],8.43 ± 0.38
14,TAATAATTACAAAGAAGTACATAAAAAAAAATTTAT [XGTACX_site4684],8.54 ± 0.32
15,CTATATATATATTTCAGTACATATTAAGAATATATA [XGTACX_site4860],8.31 ± 0.38
16,AGGAAAAAAGAAAAAACACACATAAATATTTATATA [CACACA_site7446],8.48 ± 0.66
17,TATATATATTTATGCACACAAAATATATTATATAAT [CACACA_site5955],8.515 ± 0.078
18,TATACATCATTTTTCAACAACAAAAAAAAAAAAAAT [CACACA_negctrl_site1185],8.4 ± 0.47
19,ACGTAAAATAGGGACGCATGCACAAATATTTTTAAA [TGCATGCA_site336],9.53 ± 0.37
20,ATATATATAAATACAACACACATGTAATATATAAAT [CACACA_site5766],8.7 ± 0.39
21,TAAATACTTCGTAAAACACACAAGTAGAAAAAAAAA [CACACA_site360],8.56 ± 0.47
22,ATTAATTATATATATACACACACATACACCCAAATA [CACACA_site9126],9.11 ± 0.56
23,ATAATTAGTTCAATTTTTTTTTTTTTTTTTTTTTTT [CACACA_negctrl_site1371],8.96 ± 0.13
24,AAAAATATAATATATGCACACATACATACATATATA [CACACA_site7915],8.27 ± 0.37
